PubChem BioAssay (NCATS)
Several values for one entry are separate records, joined by “and”; a condition that tells them apart may be missing. Equal entries are not always repeated. The shares of active, inactive and inconclusive entries below differ from those in the screen. A potency beside an inconclusive call is a rough fit, not a confirmed value. Activity calls are given as the source filed them. Calls follow the shape of the dose curve; as a rule, active = well fitted inhibition curve with a large enough effect; inconclusive = small, poorly fitted or top-dose-only effect; inactive = no such curve, though single readings can be large or run the other way.

Test: Primary qHTS for small molecule stabilizers of the endoplasmic reticulum resident proteome: Secreted ER Calcium Modulated Protein (SERCaMP) assay (AID 1508630)
Conditions: SH-SY5Y GLuc-SERCaMP (Gaussia luciferase released on ER calcium loss) secretion, thapsigargin, luminescence; activity change, negative = inhibition: at 38.4 µM (top of the series) unless noted
Method in brief: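 The SH-SY5Y reporter protocol was run at 3 concentrations up to 38.3 uM (primary) or 11 concentrations (follow-up): 16 h compound, 100 nM thapsigargin for 4 h, then extracellular luciferase luminescence.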
% is scaled to controls: 0 for no effect and ±100 for the full control effect; potency is read from the fitted curve at half-maximal effect; tags tell the direction and shape of the fitted curve.

| Structure (SMILES) | Potency | activity change, negative = inhibition |
| --- | --- | --- |
| CN(Cc1ccco1)c1ccnc(-c2cccc(NS(C)(=O)=O)c2)n1 | inconclusive: 12.6 µM [inhibitor, single point] |  |
| O=P(O)(O)C(O)c1ccc2ccccc2c1 (stereo not given) | inactive |  |
| C[C@@H]1CCC2[C@](C)(CO)[C@@H](O)CC[C@]2(C)[C@]12CCC(CO)(CCO)O2 (stereo not given in full) | inconclusive: 11.2 µM [inhibitor, partial curve, poor fit] |  |
| COc1ncc2nc(-c3ccc(Cl)cc3)c(=O)n(-c3ccccc3)c2n1 | inconclusive: 28.2 µM [inhibitor, single point] |  |
| C1CCC(NC(=NC2C3CC4CC(C3)CC2C4)N2CCOCC2)CC1 (stereo not given) | inactive and inconclusive: 31.6 µM [inhibitor, single point] |  |
| Cc1noc(C)c1C(=O)N1CCC[C@@]2(CCN(c3ccccc3)C2)C1 | inactive |  |
| CN(C)Cc1ccccc1-c1ccc2ncnc(NC3CCNCC3)c2c1 | inconclusive: 25.1 µM [inhibitor, single point] |  |
| Nc1ncnc2c1cnn2-c1ccccc1 | inconclusive: 2.82 µM [inhibitor, full curve] |  |
| CCCCCS(=O)(=O)CCCCCCCCCCn1c(-c2ccc(O)cc2)c(C)c2cc(O)ccc21 | inconclusive: 28.2 µM [inhibitor, single point] |  |
| CC(C)SC(=N)N | inactive |  |
| Cc1c(C(=O)N(C)C2CCCCC2)sc2nc3ccc(N)cc3n12 | inconclusive: 28.2 µM [inhibitor, single point] |  |
| CCCCCCCCCCCC(=O)O[C@H](CC(=O)O)C[N+](C)(C)C | inconclusive: 31.6 µM [inhibitor, full curve] |  |
| NC1(C(=O)O)CCc2cc(P(=O)(O)O)ccc21 (stereo not given) | inactive |  |
| COC(=O)N1CCC[C@@]2(CCN(c3ccccc3)C2)C1 | inactive |  |
| COc1ccccc1CN1CC[C@@]2(CCCN(C(C)=O)C2)C1 | inactive |  |
| CC1=CC(=O)C2=C(C)C[C@@H]3OC(=O)[C@@H](C)[C@H]3C=C12 | inconclusive: 28.2 µM [inhibitor, single point] |  |
| COCCNc1ncnc2ccc(-c3ccoc3)cc12 | inactive |  |
| CCNCCCNCCCCNCCCNCC | inconclusive: 2.24 µM [inhibitor, full curve, poor fit] |  |
| CN(C)C(=O)c1ccc(-c2ccc3ncnc(NC4CCNCC4)c3c2)cc1 | inactive |  |
| CN(C)CCC=C1c2ccccc2COc2ccccc21 | inconclusive: 7.08 µM [inhibitor, partial curve, poor fit] |  |

| Structure (SMILES) | Potency | activity change, negative = inhibition |
| --- | --- | --- |
| Cc1nc(N=Nc2cc([N+](=O)[O-])ccc2Cl)c(COP(=O)(O)O)c(C=O)c1O | inactive |  |
| C/C=C1/C(=O)C[C@@H]2[C@H]3CCC4=CC(=O)CC[C@]4(C)[C@@H]3CC[C@]12C | inconclusive: 28.2 µM [inhibitor, single point] |  |
| COc1ccc(-n2c(=O)c(CCc3ccccc3)nc3cnc(N4CCN(C)CC4)nc32)cc1 | inconclusive: 12.6 µM [inhibitor, single point] |  |
| O=C1CC2(CCCC2)CC(=O)N1CCCCNCC1COc2ccccc2O1 (stereo not given) | inconclusive: 5.01 µM [inhibitor, full curve, poor fit] |  |
| Nc1ncnc2c1ncn2C1C[C@H](O)[C@@H](CO)O1 (stereo not given in full) | inconclusive: 31.6 µM [inhibitor, single point] |  |
| O=c1ncccn1[C@@H]1O[C@H](CO)C(O)[C@@H]1O (stereo not given in full) | inactive |  |
| Nc1ncnc2c1ncn2[C@@H]1O[C@H](COP(=O)(O)OP(=O)(O)CP(=O)(O)O)[C@@H](O)[C@H]1O | inconclusive: 8.91 µM [inhibitor, partial curve, poor fit] |  |
| C/C(O)=C1\C(=O)[C@@H]2[C@H]3c4c[nH]c5cccc(c45)C[C@H]3C(C)(C)N2C1=O | inconclusive: 3.16 µM [inhibitor, full curve, poor fit] |  |
| COc1ncc2nc(-c3cc(F)cc(F)c3)c(=O)n(C[C@H]3CCCO3)c2n1 | inconclusive: 22.4 µM [inhibitor, single point] |  |
| CCCCC/C=C\C/C=C\CCCCCCCC(=O)O[C@@H](CO)COC(=O)CCCCCCCCCCCCCCCCC |  | inactive: 6.55% [at 3.88 µM] |
| Cc1noc(C)c1C(=O)N1CCC2(CCCN(Cc3nccs3)C2)CC1 | inactive |  |
| O=C1C2=C(S[C@@H]3O[C@H](CO)[C@@H](O)[C@H](O)[C@H]3O2)C(=O)c2ccccc21 | inconclusive: 2.24 µM [inhibitor, full curve, poor fit] |  |
| COc1ccccc1N1CCN(CC2CN3C(=O)N(C)c4ccccc4C3=N2)CC1 (stereo not given) | inconclusive: 5.62 µM [inhibitor, partial curve, poor fit] |  |
| O=C1c2ccccc2C(Cc2ccnc(F)c2)(Cc2ccnc(F)c2)c2ccccc21 | inconclusive: 28.2 µM [inhibitor, single point] |  |
| c1ccc(-c2cccc(N3CCCC4(CCNCC4)C3)c2)cc1 | inactive |  |
| COCCn1c(=O)c(-c2ccccc2)nc2cnc(N3CCN(C)CC3)nc21 | inconclusive: 12.6 µM [inhibitor, single point] |  |
| CC(=O)N1CCC2(CC1)CCN(c1ccncc1)CC2 | inconclusive: 2.24 µM [inhibitor, partial curve, poor fit] |  |
| c1ccc(-c2ccc(N3CC[C@@]4(CCCNC4)C3)cc2)cc1 | inconclusive: 25.1 µM [inhibitor, single point] |  |
| CCCCC/C=C\C\C=C/C=C/C=C/[C@@H](SC[C@H](N)C(=O)NCC(=O)O)[C@@H](O)CCCC(=O)O | inconclusive: 0.891 µM [inhibitor, full curve] |  |
| C/C=C/c1ccc2oc(-c3ccc(O)cc3)c(C)c2c1 | inactive |  |
